In all, about 33,000 sequences were measured (“E-score (-0.5 to 0.5)”: median about -0.016, highest 2% from about 0.31 on). The list shows a part of the results.
What follows are sequences tested against Cst6 (UniProt P40535) (assay: PBM E-score (8-mer binding enrichment) (E-score (-0.5 to 0.5)); higher = stronger / more preferred TF binding; most listed sequences are background and not binding sites). Conditions: protein concentration: 200 nM; construct: GST-DNA-binding domain.
Summary of the method: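 E-scores (a modified Wilcoxon-Mann-Whitney statistic) were assigned by the Universal PBM Analysis Suite to every ungapped eight-base word pooled with its reverse complement. The input came from universal all-10-mer Agilent arrays made double-stranded by primer extension and probed with GST-tagged yeast transcription factors at about 100-200 nM. Fluorescent anti-GST detected bound protein, and masliner normalised the scans.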

| Sequence | PBM E-score |
| --- | --- |
| AATTTCGG | 0.127 |
| AAATTTTG | 0.135 |
| AGCACTGC | -0.162 |
| AAGTCAGC | 0.11 |
| ATTTGGCG | 0.0158 |
| AGACTCGA | -0.0935 |
| GGTACCAC | -0.172 |
| GCATAAGA | 0.0584 |
| CTCTGGAC | -0.0655 |
| CTCGGCTA | -0.0824 |
| ATAGTACC | 0.00258 |
| CTGGTACC | -0.31 |
| TTCGCCAA | -0.0795 |
| ACAGTGAC | 0.297 |
| CATCGGCG | -0.104 |
| CGTCAATA | 0.349 |
| ATGCGGAC | 0.063 |
| GCTTCTCC | -0.254 |
| ATGGATCA | -0.00419 |
| AAGCCTGG | -0.19 |
| CCTGTGGC | -0.117 |
| CAAATCCC | -0.233 |
| CTGTCCGA | -0.076 |
| CACAAGAC | -0.15 |

| Sequence | PBM E-score |
| --- | --- |
| AACAGGCT | -0.13 |
| CATATCCA | -0.178 |
| AAGAGTAT | -0.0687 |
| AGCACAGC | -0.0351 |
| AGGCCGAC | -0.347 |
| TTGGCCAA | -0.275 |
| TAACTCTA | -0.0988 |
| GCGCTAGA | -0.0469 |
| CAGAACAC | -0.137 |
| TGGCTTAA | 0.091 |
| AAGGTTCA | -0.0958 |
| TCGCTAGA | -0.0754 |
| GACTTCGC | 0.0419 |
| CTGTTTGA | 0.0716 |
| CGCTGTTC | -0.0387 |
| AATGTAGG | -0.174 |
| CCCTAGAC | -0.277 |
| AGTCCCTG | -0.223 |
| AGCTGTGG | -0.273 |
| ACCGAACG | 0.129 |
| GCGCGAAA | 0.212 |
| GTAAAAAC | 0.167 |
| GCTCCCTA | -0.2 |
| CCTAAACG | 0.00558 |

| Sequence | PBM E-score |
| --- | --- |
| GCTCGGAA | -0.173 |
| AGTTTTAA | 0.194 |
| AGGCTACG | -0.132 |
| CGTTCGTA | 0.164 |
| ACGTACCG | 0.0475 |
| GAATGATC | 0.142 |
| AGGTACCT | -0.2 |
| CCTGAATC | -0.017 |
| TATGGAGA | -0.0644 |
| GCTAAGAA | -0.0426 |
| ACCATACA | -0.0921 |
| CGTAAGAG | 0.185 |
| GTTGTTAA | 0.283 |
| CTTAGCAC | -0.0219 |
| GCTATAAA | 0.117 |
| GACGAAAA | 0.329 |
| AGTTAGTA | -0.00586 |
| ACTGCTAC | 0.0057 |
| AGCCGGCT | -0.193 |
| AGGATCTG | -0.276 |
| CTTAGCCC | -0.21 |
| AGCATCGG | -0.139 |
| GGTTTCCA | -0.233 |
| CGTTAGCA | 0.123 |

| Sequence | PBM E-score |
| --- | --- |
| ACACGGAA | 0.164 |
| CAGAGCCA | -0.21 |
| ATCCTTAC | 0.0997 |
| ATAGATGA | 0.159 |
| CGGGCAAA | -0.161 |
| AGGCTTTA | 0.0698 |
| ACCCGTGG | -0.252 |
| ATCGATAA | 0.0397 |
| CAATATGG | -0.0819 |
| AACCTACG | -0.043 |
| GTTTTGGA | -0.114 |
| CTCGACAA | -0.0188 |
| GCATCGTA | 0.0338 |
| AGTTCGGG | -0.0616 |
| GCAGTCTA | -0.229 |
| ATCTGCAG | 0.0722 |
| GCAGCTAA | -0.0537 |
| GAAATTAC | 0.275 |
| CGCAGTAA | 0.187 |
| GCGAACGC | -0.0992 |
| CAGCTTGC | -0.0683 |
| CACTGTTC | -0.0822 |

— the supplement of paper PMC3334620
